In publication PMC4336329 (PLoS ONE, 2015):
Hit rate of the full screen: of about 310,000 compounds, about 2,200 (0.71%) showed an effect of 50% or more. The effect is printed as a negative number. The list shows a part of the results.

target: human ether-à-go-go-related gene (hERG) potassium channel (human, UniProt Q12809); experiment: primary screen, population patch clamp on CHO cells stably expressing hERG
Sequence (Q12809 whole entry, looked up): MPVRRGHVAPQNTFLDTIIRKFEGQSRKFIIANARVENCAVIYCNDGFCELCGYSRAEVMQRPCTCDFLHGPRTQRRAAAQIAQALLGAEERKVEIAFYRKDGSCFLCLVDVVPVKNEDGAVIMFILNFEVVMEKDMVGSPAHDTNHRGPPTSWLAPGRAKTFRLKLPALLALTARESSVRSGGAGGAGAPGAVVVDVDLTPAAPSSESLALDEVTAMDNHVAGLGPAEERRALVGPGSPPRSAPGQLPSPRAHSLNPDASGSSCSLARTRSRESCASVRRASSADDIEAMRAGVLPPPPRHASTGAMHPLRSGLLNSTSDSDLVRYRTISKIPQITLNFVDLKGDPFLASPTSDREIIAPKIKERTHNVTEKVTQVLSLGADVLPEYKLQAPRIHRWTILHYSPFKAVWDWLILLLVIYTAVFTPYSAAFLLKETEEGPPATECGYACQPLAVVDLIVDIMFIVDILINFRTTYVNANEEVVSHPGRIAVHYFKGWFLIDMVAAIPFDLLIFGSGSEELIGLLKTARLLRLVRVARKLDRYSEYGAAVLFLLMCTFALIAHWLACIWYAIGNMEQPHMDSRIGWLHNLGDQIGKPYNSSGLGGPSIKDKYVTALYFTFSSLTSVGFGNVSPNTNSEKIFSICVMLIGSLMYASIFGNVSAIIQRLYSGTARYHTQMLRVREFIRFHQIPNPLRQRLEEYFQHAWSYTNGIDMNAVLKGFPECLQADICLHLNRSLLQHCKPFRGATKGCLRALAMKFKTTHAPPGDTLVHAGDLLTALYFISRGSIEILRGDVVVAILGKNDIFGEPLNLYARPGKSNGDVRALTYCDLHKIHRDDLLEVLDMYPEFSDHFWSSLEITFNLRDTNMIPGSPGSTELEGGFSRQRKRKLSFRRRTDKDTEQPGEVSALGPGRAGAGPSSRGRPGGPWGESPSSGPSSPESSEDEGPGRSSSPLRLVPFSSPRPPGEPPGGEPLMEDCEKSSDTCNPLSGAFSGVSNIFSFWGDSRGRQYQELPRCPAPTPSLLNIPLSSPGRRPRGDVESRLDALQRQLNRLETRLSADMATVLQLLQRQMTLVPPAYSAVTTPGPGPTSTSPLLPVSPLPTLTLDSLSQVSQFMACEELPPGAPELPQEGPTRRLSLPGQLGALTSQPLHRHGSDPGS

Structure (SMILES)	hERG current change (%, negative = inhibition) at 1uM [%]
Cc1ccc(N2C(=O)Nc3cc(Cl)c(Cl)cc3N2O)cc1Cl	12.7
Cc1ccc(CN2CCN(C3CCCC3)C(CCO)C2)s1 (centres unmarked)	3.65
COc1cccc(NS(=O)(=O)c2ccc(S(=O)(=O)N3CCCC3)cc2)c1	4.73
COc1ncnc2c1NC(=O)CS2	10.2
Cc1cccc(OCC(=O)Nc2nonc2NC(=O)COc2cccc(C)c2)c1	10.7
CCN=C1S/C(=C\c2cn(C(C)=O)nc2-c2ccccc2)C(=O)N1CC	17
O=C(CNC(=O)c1ccccc1F)NCCc1ccc(Cl)cc1	9.91
Cc1ccc(S(=O)(=O)/N=C(/Nc2ccc(F)cc2F)c2ccc(F)cc2)cc1	10.5
CCOc1ccccc1N(CC(=O)NC1CCCCC1)S(=O)(=O)c1ccc(C)cc1	10
Cc1ccc(S(=O)(=O)N2CCOCC2)cc1NC(=O)CSc1ccc(Cl)cc1	-0.243
Cc1c(Cl)cccc1N1C(=O)c2ccccc2C1=O	6.94
Cc1cc(NC(=O)CCC(=O)N(Cc2ccco2)C(C(=O)NC2CCCC2)c2ccccc2C)no1 (centres unmarked)	6.65
CCCCSc1nc2ccccc2n1CC(=O)O	10.8
O=C(CSC1=NCCS1)NCc1ccco1	14.7
CC1=C(C)C(=O)C(CCCCC#CCCCC#CCO)=C(C)C1=O	-0.707
COc1cc(C(=O)Nc2ccccn2)cc(OC)c1OC	14.8
Cc1ccc(C)c(OCCCCN2CCNCC2)c1C.O=C(O)C(=O)O	9.14
COc1ccccc1NC(=O)C1CCCN1C(=O)NC1CCCCC1 (centres unmarked)	9.3
CC(C)C(NC(=O)CCNC(=O)c1ccc([N+](=O)[O-])cc1)c1nc2ccccc2[nH]1 (centres unmarked)	8.95

Structure (SMILES)	hERG current change (%, negative = inhibition) at 1uM [%]
COc1cc(NC(=O)Cn2nnc(-c3ccncc3)n2)cc(OC)c1	10.7
O=C(NCc1ccc2c(c1)OCO2)c1cnc2ccccn2c1=O	5.17
O=C(CCSc1ccccc1)NC(=O)COC(=O)C1CCCCC1	6.89
COc1ccccc1CN1C[C@@H]2C[C@@H](c3[nH]c4c(C)cccc4c3C)N3CCC[C@@]23C1=O	3.11
O=C(Nc1ccon1)c1ccc(Br)o1	-1.21
CCOC(=O)c1[nH]cnc1C(=O)N1CCC(C)CC1	24.3
Cc1ccc(C2=NNC(=O)C(c3ccc(Cl)cc3)C2)cc1 (centres unmarked)	2.89
CCc1nnc(NC(=O)c2ccc(S(=O)(=O)N3CCCCC3)cc2)s1	8.05
Cn1c(=O)c(=O)n(C)c2cc(S(=O)(=O)N3CCc4ccccc43)ccc21	-8.77
COc1ccc(OC)c(C(C)NC(=O)c2ccco2)c1 (centres unmarked)	-0.976
Cc1cc(C)c(C)c(C(=O)COC(=O)CNC(=O)CN2C(=O)c3ccccc3C2=O)c1C	5.4
CCOC(=O)N1CCN(C(=O)c2sc3nc(-c4ccc(F)cc4)cn3c2C)CC1	-22.3
COC(=O)CSc1nc(C(C)C)nc2ccccc12	1.09
Cc1[nH]c2ccccc2c1Cc1nnc(SCC(N)=O)o1	10.7
CN(C)S(=O)(=O)c1cc(NC(=O)COC(=O)CCc2ccccc2)ccc1Cl	3.19
Cc1ccc(N(CC(O)CN2CCOCC2)S(=O)(=O)c2ccc3ccccc3c2)cc1 (centres unmarked)	-55.6
CCOC(=O)C1=NN(c2ccccc2)C(=O)/C1=C\c1ccc(N(C)C)cc1	19.4
O=C(O)CCC(=O)Nc1sc2c(c1C(=O)Nc1ccccc1)CCCCC2	12.2
COc1cc(/C=C2\C(=O)NC(=O)N(c3ccc(C)cc3)C2=O)cc(OC)c1O	7.42

Structure (SMILES)	hERG current change (%, negative = inhibition) at 1uM [%]
O=C(Cn1c(=O)oc2cc(S(=O)(=O)N3CCCC3)ccc21)NCc1ccccn1	6.64
CCCCCCCC1CC(/C(C)=N/NC(N)=O)OC1=O (centres unmarked)	-16.2
O=C(CNC(=O)Cn1cnc2sc3c(c2c1=O)CCCC3)NCc1ccccn1	16.6
CCN(CC(=O)Nc1c(F)cccc1F)C(=O)CSC(=S)N1CCCC1	6.34
O=C(O)c1ccc(CSc2nnc(-c3ccncc3)n2CC2CCCO2)cc1 (centres unmarked)	11.5
CC(C)c1ccc(Nc2nc(CC(=O)O)cs2)cc1	13.2
Cc1ccc(-n2nc(N)c3c(=O)oc(N(C)C)nc32)cc1	7.91
Cc1cc(C)c[n+](-c2nc3ccccc3nc2[N-]S(=O)(=O)c2ccc(Br)s2)c1	3.02
Cc1cc(N)n2nc(-c3ccccc3)c(-c3ccccc3)c2n1	9.65
O=C(CSC1=Nc2ccccc2C2=NC(Cc3c[nH]c4ccccc34)C(=O)N12)NC1CCCCC1 (centres unmarked)	5.25
CC1(C)CC[C@@]23CC[C@]4(C)[C@@](OC2=O)(C3C1)[C@H]1O[C@H]1C1[C@@]2(C)CC[C@H](O)C(C)(C)C2CC[C@]14C (some centres unmarked)	6.15
Cc1cccc(OCc2nc(-c3nonc3N)no2)c1C	0.647
Cn1cnnc1SCC(=O)Nc1ccc(F)cc1	17.4
CCN1CCN(C(=O)c2cc(COc3ccc(F)cc3F)on2)[C@@H](C)C1=O	10.7
COc1ccc(Br)c(-c2nc(CS(=O)(=O)c3ccc(F)cc3)no2)c1	8.18
COc1ccccc1NC(=S)N(Cc1ccc(C)cc1)Cc1cccnc1	-6.19
COCc1cc(=O)oc2cc(NC(=O)c3ccc(C(C)(C)C)cc3)ccc12	12.2
COc1cc(C(=O)N(c2ccc(C)c(C)c2)C2C=CS(=O)(=O)C2)cc(OC)c1OC (centres unmarked)	-5.4
